From article PMC12136788
This is one part of the list.

B1: chr18:74380996:74380997:+_ENSMUSG00000024560_ENSMUST00000025444|mus_mus|FALSE|FALSE (ssRNA)
RNA: GGGAGUUCUACAGUCCGACGAUCGCAGAGACCCUUUGAUAAGGGCAAACGGAAGCCAAAACGUGGAUGGUGAGGAUCAAACUAAGGGCAGCAGAAGAAACAGAUGAAUGGAGGAACGGACAGCUGGCAAUGCAGGGCCUCUCCCAACAGAGGAUUGAGCAUCA
B2: chr11:77336104:77336105:-_ENSG00000074201_ENST00000525064|hu_mus|hu_hu_hu_mus_False|18_48 (ssRNA)
RNA: GGGAGUUCUACAGUCCGACGAUCCUCACACAUUGCUGUGAACAUCGCCUCCAAUGCUGACUUAUCACUGGGCACAAAUCGAAAUUCAGUAAUAGGUUCAACAUCAUCAUUGUCUUCUUCCUCUUCUUCAGAGAGAGGUUCUUUCAACAGAGGAUUGAGCAUCA
B3: chr7:54825262:54825263:-_ENSG00000132432_ENST00000352861|hu_hu|hu_hu_hu_mus_False|98_98 (ssRNA)
RNA: GGGAGUUCUACAGUCCGACGAUCCUGCCGGCUGGGCACAAACUGCAGCAUUACCUGAUCCAUGUUUGUUGGAUGGCGGAUUGAGAGCGUAGAGACACGUAGCUCAGGAGAGAACCGAGCCCAACGGAACCGGAAGCUGGCAACCAACAGAGGAUUGAGCAUCA
B4: chr12:32445735:32445736:+_ENSMUSG00000035933_ENSMUST00000036862|mus_mus|FALSE|FALSE (ssRNA)
RNA: GGGAGUUCUACAGUCCGACGAUCUCGAGCUCUUGCAAUAAAGAGUAGAUCAUUCUCUAUUACUUCUAUUCCAGAAAGAUCUAUUCCUUGAGAAAGAUAAUCAAGUUCAUUGAGACUCUGAGCAGCUUUUGUUAUCUCUCUACUCAACAGAGGAUUGAGCAUCA
B5: chr3:179287964:179287965:+_ENSG00000136518_ENST00000429709|hu_hu|hu_hu_hu_mus_True|38_108 (ssRNA)
RNA: GGGAGUUCUACAGUCCGACGAUCCUUUAGAGGUGAAAUGGCCUCCAUGUUCUCCCUGGGCACGCGGAGGGCAUUGGUGUCUAUGUAGUAGGUGGGCCCGCCUUGUUUGCCUUUGUCACCAUCAAUCUCCAUCAUUGUACUUCCCAACAGAGGAUUGAGCAUCA
B6: 67424326_67425412_2592_3pUTR_ENSMUSG00000037736_ENSMUST00000038188|mouse|control|control (ssRNA)
RNA: GGGAGUUCUACAGUCCGACGAUCAGGUGGAUCCUGAGCUGGCUGUGGGUUUGUACCACAGUGUGGGGCCCCAGCCUCUGCCUCCAGCUGCGGGUCCUGAUGGAUUCCUUUUGACACGGAGAUUUCAGGGUUAGCCGAGGGACUCAACAGAGGAUUGAGCAUCA
B7: chr1:115279457:115279458:-_ENSG00000009307_ENST00000339438|hu_hu|FALSE|FALSE (ssRNA)
RNA: GGGAGUUCUACAGUCCGACGAUCGUUUAUUUUAUCUCCAGUUUCCAGCUGAACGUUCCCUUCGACAUCUUCAGGGGUGUAAGUCAGAUAAAACACUUCUUGUCCAUUCAUUCGUUCUUCAGGGAGGAUUUCUUGUUUUAUCUUCAACAGAGGAUUGAGCAUCA
B8: 184256513_184260114_344_3pUTR_ENSMUSG00000047539_ENSMUST00000051431|mouse|control|control (ssRNA)
RNA: GGGAGUUCUACAGUCCGACGAUCUGACUCUCUCCUCGGUAGCUGUGCUUUAACUUGCUUCUGACACAGGUUAUGGAACCUCUCCACUUUCAGAAACCCCUGAUUCAACAUUCUCUGACAGACCAGGUCCAUUCUCUUACAAACCAACAGAGGAUUGAGCAUCA
B9: chr8:72619762:72619763:-_ENSMUSG00000002341_ENSMUST00000002412|mus_mus|motif|central (ssRNA)
RNA: GGGAGUUCUACAGUCCGACGAUCCAGGAGGAUUGAGACUUCAAGGACAUCUUUCUACAAUAGUGAGUUCGAGGCCAGCCGGGUUUGGGGGUUGGAGGUGUUGGAAUUGGGAGGGAGGAAGAAGAAAGGGGAAAAAAAAAGAAACAACAGAGGAUUGAGCAUCA
B10: chr9:95013113:95013114:-_ENSG00000196305_ENST00000443024|hu_hu|hu_hu_hu_mus_False|1_78 (ssRNA)
RNA: GGGAGUUCUACAGUCCGACGAUCCUCAGUCAGAAAGGGCGUGUAAGGGGCCAUCAGUCUGCAAAGAGAAAGCAGGACACUGAACAGUGUCUCCAGAGCCAUGACACAGUCUUCCACCCCACUCUCACCCUUUAACCUUCUGCGCAACAGAGGAUUGAGCAUCA
B11: chr7:127792870:127792871:+_ENSMUSG00000030884_ENSMUST00000033176|mus_mus|motif|central (ssRNA)
RNA: GGGAGUUCUACAGUCCGACGAUCUGUGAAGUGGUUCUGAACAAAGUAAUGUAAUUCCUCUGAUGUUAUCUUCCCCAUCCGGUAGUCAGGACAGUACAAAGGAUUAGCCAAGGCAUUCUUGUAGGCAACAUCAUGCAAGUUCUCCAACAGAGGAUUGAGCAUCA
B12: chr11:46405157:46405158:+_ENSG00000110492_ENST00000395566|hu_hu|motif|central (ssRNA)
RNA: GGGAGUUCUACAGUCCGACGAUCCACUUAGGGGUGGGGCUGGGGAGUGAGAGGGACAAGGCAGGGCAUGAUUGAUUAAAGCGGACGAGCAGACAGAAGGCACUGGUGGGUCACAUCUCGGGCCUGGGAGAGGGAGGGCGUGGGCAACAGAGGAUUGAGCAUCA
B13: chr6:31457689:31457690:+_ENSMUSG00000025609_ENSMUST00000142469|perfect_dup|motif|central (ssRNA)
RNA: GGGAGUUCUACAGUCCGACGAUCGAUGAGGUCUACCAGGUUGCCUUUAGGAGGAGUCAUGCUGUCAGGAAAGAAAUUUACGGAGGUGUCAAAGAGCUGAGUUCUUUGAGCAUAGGUGUGAUCCACAUCAGAAAAGCCCAGAGCCAACAGAGGAUUGAGCAUCA
B14: 47159233_47176799_437_3pUTR_ENSG00000149179_ENST00000278460|human|control|control (ssRNA)
RNA: GGGAGUUCUACAGUCCGACGAUCCUGGAUCUGGAAGGCAAAGAGGAAAUCUGAAAAAGACAUCAAGCAGUCCAUGGCAUCGUCCAUGAGCACAAUCCUGGCUGCUUUCUGAGUGAGCUCCAGCGGGAAAUCAGGACACAGUAACAACAGAGGAUUGAGCAUCA

These binders were tested against T1, UNK ZnF1-3 (human, UniProt Q9C0B0 31-174) (assay: nsRBNS (natural sequence RNA bind-n-seq); RBNS binding buffer (assumed for nsRBNS): 25 mM Tris pH 7.5, 150 mM KCl, 3 mM MgCl2, 0.01% Triton X-100, 500 ug/ml BSA, 20 U/ml SUPERase-In, 4 C; UNK is unkempt and MSI1 is Musashi-1; names of the RNAs are library labels; protein concentration not given here; high values mean tight binding).
T1 sequence: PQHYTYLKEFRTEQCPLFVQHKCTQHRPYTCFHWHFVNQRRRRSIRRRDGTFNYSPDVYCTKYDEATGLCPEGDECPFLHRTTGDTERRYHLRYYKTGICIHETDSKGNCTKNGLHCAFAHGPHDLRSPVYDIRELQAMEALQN
Work on B1 yielded a binding signal of 1.97 enrichment R.
In the case of B2, the binding signal is reported as 0.645 enrichment R.
With B3 the binding signal was 1.6 enrichment R.
B4 was tested, and the binding signal was 0.687 enrichment R.
B5 gave a binding signal of 0.765 enrichment R.
Work on B6 yielded a binding signal of 0.682 enrichment R.
B7 gave a binding signal of 0.494 enrichment R.
B8 showed a binding signal of 0.836 enrichment R.
Binder B9 has a binding signal of 1.9 enrichment R.
Binder B10 has a binding signal of 1.06 enrichment R.
B11 gave a binding signal of 1.14 enrichment R.
B12 gave a binding signal of 2.65 enrichment R.
B13 showed a binding signal of 1.63 enrichment R.
In the case of B14, the binding signal is reported as 1.75 enrichment R.
